# In the supplement of paper PMC12217912:
# The other results are listed elsewhere or left out. The full chains were built here from the parent and the listed change. Values near 0.05 are background.
# B1: TEV protease; numbered along this chain (parent)
# chain: MGESLFKGPRDYNPISSSICHLTNESDGHTTSLYGIGFGPFIITNKHLFRRNNGTLVVQSLHGVFKVKDTTTLQQHLVDGRDMIIIRMPKDFPPFPQKLKFREPQREERICLVTTNFQTKSMSSMVSDTSCTFPSGDGIFWKHWIQTKDGQCGSPLVSTRDGFIVGIHSASNFTNTNNYFTSVPKNFMELLTNQEAQQWVSGWRLNADSVLWGGHKVFMVKPEEPFQPVKEATQL
# Variants of: B1
# Test: raw area under fraction-flipped curve 0-4 h after induction (AUC4h, not background-subtracted), DNA-recorder readout of cleavage of the substrate (dimensionless); higher = more cleavage of the substrate by the protease variant
# Details: temperature: 34 °C; time window: 0-4 h after rhamnose induction
# 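Further: Bxb1 expression induced with 0.2% (w/v) L-rhamnose at OD600 near 0.5, cultures sampled hourly, flipped fraction per protease–substrate barcode pair counted by paired-end Illumina sequencing.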
Variant,area with substrate ENLYFQC,area with substrate ENLYFQD,area with substrate ENLYFQE,area with substrate ENLYFQG,area with substrate ENLYFQL,area with substrate ENLYFQM,area with substrate ENLYFQN,area with substrate ENLYFQP,area with substrate ENLYFQQ,area with substrate ENLYFQR,area with substrate ENLYFQS,area with substrate ENLYFQT,area with substrate ENLYFQW,area with substrate ENLYFQK,area with substrate ENLYFQV,area with substrate ENLYFQY,area with substrate ENLYFQF,area with substrate ENLYFQH,area with substrate ENLYFQI
MGESLFKGPRDYNPISSSICHLTNESDGHTTSLYGIGFGPFIITNKHLFRRNNGTLVVQSLHGVFKVKDTTTLQQHLVDGRDMIIIRMPKDFPPFPQKLKFREPQREERICLVTTNFQTKSMSSMVSDTSCTFPSGDGIFWKHWIETKDGQCGSPLVSTRDGFIVGIHSASNFTNTNNYFTSVPKNFMELLTNQEAQQWVSGWRLNADSVLWGGHKVFMVKPEEPFQPVKEATQL [Q146E],0.119,0.0737,0.0739,0.0928,0.0703,0.0815,0.0755,0.0657,0.0978,0.0591,0.0966,0.0675,0.0482,–,–,–,–,–,–
MGESLFKGPRDYNPISSSICHLTNESDGHTTSLYGIGFGPFIITNKHLFRRNNGTLVVQSLHGVFKVKDTTTLQQHLVDGRDMIIIRMPKDFPPFPQKLKFREPQREERICLVTTNFQTKSMSSMVSDTSCTFFSGDGIFWKHWIQTKDGQCGSPLVSTRDGFIVGIHSASNFTNTNNYFTSVPKNFMELLTNQEAQQWVSGWRLNADSVLWGGHKVFMVKPEEPFQPVKEATQL [P134F],0.0606,0.0612,–,0.073,–,0.0641,0.0319,–,–,0.054,0.0679,0.0691,–,0.0573,0.062,0.0647,–,–,–
MGESLFKGPRDYNPISSSICHLTNESDGHTTSLYGIGFGPFIITNKHLFRRNNGTLVVQSLHGVFKVKDTTTLQQHLVDGRDMIIIRMPKDFPPFPQKLKFREPQREERICLVTTNFQTKSMSSMVSDTSCTFPSGDGIFWKHWAQTKDGQCGSPLVSTRDGFIVGIHSASNFTNTNNYFTSVPKNFMELLTNQEAQQWVSGWRLNADSVLWGGHKVFMVKPEEPFQPVKEATQL [I145A],0.172,–,–,–,0.051,–,0.0879,–,–,0.0671,0.118,0.0725,–,0.0455,–,–,0.0755,–,–
MGESLFKGPRDYNPISSSICHLTNESDGHTTSLYGIGFGPFIITNKHLFRRNNGTLVVQSLHGVFKVKDTTTLQQHLVDGRDMIIIRMPKDFPPFPQKLKFREPQREERICLVTTNFQTKSMSSMVSDTSCTFPSGDGIFWKHWSQTKDGQCGSPLVSTRDGFIVGIHSASNFTNTNNYFTSVPKNFMELLTNQEAQQWVSGWRLNADSVLWGGHKVFMVKPEEPFQPVKEATQL [I145S],0.132,0.0717,0.0472,0.0966,–,–,0.0815,–,–,–,0.129,0.0816,–,–,0.0597,0.0871,0.119,0.104,–
MGESLFKGPRDYNPISSSICHLTNESDGHTTSLYGIGFGPFIITNKHLFRRNNGTLVVQSLHGVFKVKDTTTLQQHLVDGRDMIIIRMPKDFPPFPQKLKFREPQREERICLVTTNFQTKSMSSMVSDTSATFPSGDGIFWKHWIQTKDGQCGSPLVSTRDGFIVGIHSASNFTNTNNYFTSVPKNFMELLTNQEAQQWVSGWRLNADSVLWGGHKVFMVKPEEPFQPVKEATQL [C131A],0.108,0.0949,–,–,–,–,0.084,–,–,–,0.102,0.0691,0.0628,–,–,–,–,–,–
MGESLFKGPRDYNPISSSICHLTNESDGHTTSLYGIGFGPFIITNKHLFRRNNGTLVVQSLHGVFKVKDTTTLQQHLVDGRDMIIIRMPKDFPPFPQKLKFREPQREERICLVTTNFQTKSMSSMVSDTSCTFPSGDGIFLKHWIQTKDGQCGSPLVSTRDGFIVGIHSASNFTNTNNYFTSVPKNFMELLTNQEAQQWVSGWRLNADSVLWGGHKVFMVKPEEPFQPVKEATQL [W141L],0.0627,0.0465,–,0.0646,0.0428,0.0511,0.0533,0.0544,–,–,0.0542,0.0538,–,–,–,0.0388,–,0.0659,0.0659
MGESLFKGPRDYNPISSSICHLTNESDGHTTSLYGIGFGPFIITNKHLFRRNNGTLVVQSLHGVFKVKDTTTLQQHLVDGRDMIIIRMPKDFPPFPQKLKFREPQREERICLVTTNFQTKSMSSMVSDTSCTFPSGDGIFKKHWIQTKDGQCGSPLVSTRDGFIVGIHSASNFTNTNNYFTSVPKNFMELLTNQEAQQWVSGWRLNADSVLWGGHKVFMVKPEEPFQPVKEATQL [W141K],0.0545,–,0.0605,0.0966,–,0.0546,–,–,0.0328,0.061,0.0568,0.0553,–,–,0.0544,–,0.0454,–,0.0623
MGESLFKGPRDYNPISSSICHLTNESDGHTTSLYGIGFGPFIITNKHLFRRNNGTLVVQSLHGVFKVKDTTTLQQHLVDGRDMIIIRMPKDFPPFPQKLKFREPQREERICLVTTNFQTKSMSSMVSDTSCTFPSGDGIFWKHWIQTKAGQCGSPLVSTRDGFIVGIHSASNFTNTNNYFTSVPKNFMELLTNQEAQQWVSGWRLNADSVLWGGHKVFMVKPEEPFQPVKEATQL [D149A],0.0999,–,–,0.0669,0.0626,0.0749,0.0596,–,0.0629,0.069,0.1,0.053,–,–,0.067,0.0678,0.0409,–,0.066
MGESLFKGPRDYNPISSSICHLTNESDGHTTSLYGIGFGPFIITNKHLFRRNNGTLVVQSLHGVFKVKDTTTLQQHLVDGRDMIIIRMPKDFPPFPQKLKFREPQREERICLVTTNFQTKSMSSMVSDTSCTFPSGDGIFWKHWIQTKFGQCGSPLVSTRDGFIVGIHSASNFTNTNNYFTSVPKNFMELLTNQEAQQWVSGWRLNADSVLWGGHKVFMVKPEEPFQPVKEATQL [D149F],0.102,–,–,0.0762,0.0433,–,0.0776,–,–,0.057,0.0816,–,0.0614,0.0353,0.0505,0.0644,–,–,0.0538
